Results: a collection of fitness landscapes (doi:10.1126/science.1257360)
This is one part of the list.

B1: PhoQ; a variant is named by its letters at X, in order, P23837 (parent)
chain: MKKLLRLFFPLSLRVRFLLATAAVVLVLSLAYGMVALIGYSVSFDKTTFRLLRGESNLFYTLAKWENNKLHVELPENIDKQSPTMTLIYDENGQLLWAQRDVPWLMKMIQPDWLKSNGFHEIEADVNDTSLLLSGDHSIQQQLQEVREDDDDAEMTHSVAVNVYPATSRMPKLTIVVVDTIPVELKSSYMVWSWFIYVLSANLLLVIPLLWVAAWWSLRPIEALAKEVRELEEHNRELLNPATTRELTSLVRNLNRLLKSERERYDKYRTTLTDLTHSLKTPLXXLQXXLRSLRSEKMSVSDAEPVMLEQISRISQQIGYYLHRASMRGGTLLSRELHPVAPLLDNLTSALNKVYQRKGVNISLDISPEISFVGEQNDFVEVMGNVLDNACKYCLEFVEISARQTDEHLYIVVEDDGPGIPLSKREVIFDRGQRVDTLRPGQGVGLAVAREITEQYEGKIVAGESMLGGARMEVIFGRQHSAPKDE

Variants of: B1
Assay: enrichment ratio after two sorts for PhoP signalling (ratio (wild type AVST 3.29)); higher = more functional
Settings: with PhoP (E. coli)

Variant	enrichment ratio
PVYH	≤ 0.25
MRKP	≤ 0.25
RYMK	≤ 0.25
WRLC	≤ 0.25
TAVW	≤ 0.25
KKFW	≤ 0.25
ISMP	≤ 0.25
QIEI	≤ 0.25
VDVG	≤ 0.25
NMAI	≤ 0.25
HSKK	≤ 0.25
FDNN	≤ 0.25
FPLY	≤ 0.25
RAPD	≤ 0.25
WNQP	≤ 0.25
MSHM	22
FFTL	≤ 0.25
DCDM	≤ 0.25
SIDA	≤ 0.25
RKQG	≤ 0.25
TFHD	≤ 0.25
TTWA	≤ 0.25
LERS	≤ 0.25
LPDE	≤ 0.25
FNAL	≤ 0.25

Variant	enrichment ratio
EITV	≤ 0.25
SVSQ	13.4
MDSW	≤ 0.25
YACE	≤ 0.25
PAHP	≤ 0.25
LVNG	≤ 0.25
YDNL	≤ 0.25
KKFG	≤ 0.25
KMNE	≤ 0.25
PHTA	≤ 0.25
VTWA	≤ 0.25
LQWM	≤ 0.25
SVKL	≤ 0.25
VYVQ	≤ 0.25
WMYT	≤ 0.25
RHQQ	≤ 0.25
APRG	≤ 0.25
RMNI	≤ 0.25
KKSY	≤ 0.25
FVAS	≤ 0.25
IIIS	≤ 0.25
DEYL	≤ 0.25
DLTW	≤ 0.25
KRHS	≤ 0.25
KCVC	≤ 0.25

Variant	enrichment ratio
HNAF	≤ 0.25
KRYK	≤ 0.25
DLKW	≤ 0.25
PHPI	≤ 0.25
PTGK	≤ 0.25
TVPF	≤ 0.25
MGVP	≤ 0.25
RGYQ	≤ 0.25
WRTN	≤ 0.25
QFSA	≤ 0.25
EVHN	≤ 0.25
DEFR	≤ 0.25
LLKH	≤ 0.25
IYND	≤ 0.25
PWWI	≤ 0.25
RMKR	≤ 0.25
AFLM	4.13
AKFC	≤ 0.25
ILSD	≤ 0.25
VNWR	≤ 0.25
MTLA	2.93
GIVF	5.84
SDPL	≤ 0.25
ERKI	≤ 0.25
NNSY	≤ 0.25

Variant	enrichment ratio
QVGS	≤ 0.25
KKIA	≤ 0.25
VVVM	≤ 0.25
NTTI	≤ 0.25
LGTT	≤ 0.25
WECP	≤ 0.25
QMLG	≤ 0.25
WADY	≤ 0.25
GPNI	≤ 0.25
RMNG	≤ 0.25
AELF	16.2
MMHM	≤ 0.25
LKFL	0.481
KITT	≤ 0.25
TEDL	≤ 0.25
REPF	≤ 0.25
TKHQ	≤ 0.25
WDLM	≤ 0.25
RTMI	≤ 0.25
IYGF	≤ 0.25
LVGL	≤ 0.25
SKRM	≤ 0.25
FKFE	≤ 0.25
FSPC	≤ 0.25
SDVN	≤ 0.25

Variant	enrichment ratio
LYNH	≤ 0.25
TCVD	≤ 0.25
THMI	26.1
EFGP	≤ 0.25
REYN	≤ 0.25
KMFG	≤ 0.25
YPNQ	≤ 0.25
VTVT	≤ 0.25
IDIK	≤ 0.25
QCGY	≤ 0.25
ELTF	≤ 0.25
VLLP	≤ 0.25
AEFM	5.63
ATWD	≤ 0.25
VEGQ	≤ 0.25
DNTH	≤ 0.25
MALG	7.23
DTSP	≤ 0.25
MVVH	≤ 0.25
VHRM	≤ 0.25
LEKG	≤ 0.25
EGMP	≤ 0.25
TERQ	≤ 0.25
YCFQ	≤ 0.25
HDIM	≤ 0.25

Variant	enrichment ratio
FYIF	≤ 0.25
VAND	≤ 0.25
IYYI	≤ 0.25
YLPT	≤ 0.25
TLFF	≤ 0.25
YTAL	≤ 0.25
YEND	≤ 0.25
YDFL	≤ 0.25
MPPT	≤ 0.25
KPFG	≤ 0.25
RAFQ	≤ 0.25
QPGY	≤ 0.25
LTVV	≤ 0.25
STDP	≤ 0.25
GIST	8.78
YRGT	≤ 0.25
SATK	≤ 0.25
PKSP	≤ 0.25
DKPK	≤ 0.25
DHES	≤ 0.25
EMYD	≤ 0.25
FAPP	≤ 0.25
KSTV	≤ 0.25
DRPR	≤ 0.25
FPSN	≤ 0.25

Variant	enrichment ratio
YRQT	≤ 0.25
VKAE	1.52
MVDL	≤ 0.25
YTHN	≤ 0.25
TYPT	≤ 0.25
GKDT	≤ 0.25
VQRP	≤ 0.25
EKMH	≤ 0.25
TYGF	≤ 0.25
RHSI	≤ 0.25
MNFS	≤ 0.25
ILAW	≤ 0.25
SPDP	≤ 0.25
LAVY	≤ 0.25
MVFI	≤ 0.25
RSGE	≤ 0.25
YWAK	≤ 0.25
VAPY	≤ 0.25
NWFS	≤ 0.25
WQEL	≤ 0.25
MYKW	≤ 0.25
TTCS	18.7
WMMR	≤ 0.25
VEYH	≤ 0.25
FNAP	≤ 0.25

Variant	enrichment ratio
IVWG	≤ 0.25
NLCY	≤ 0.25
HTSD	≤ 0.25
TQRV	≤ 0.25
MLCD	≤ 0.25
MHFM	≤ 0.25
YLAS	≤ 0.25
MIAS	4.77
NAVG	≤ 0.25
WGRV	≤ 0.25
VDFG	≤ 0.25
MTKT	≤ 0.25
GDMI	0.38
GHLF	≤ 0.25
PWHE	≤ 0.25
HVWF	≤ 0.25
SEER	≤ 0.25
MIRN	≤ 0.25
HCCP	≤ 0.25
ANYA	≤ 0.25
